Among the data in the RNAGym collection of RNA variant scans (doi:10.7554/elife.90254) are self-cleavage values, retold here.

The source gives no read counts; variants with many changes may rest on few reads.

To fix the notation:
B1: LINE1-mini (parent)
chain: GGCAGAGCUCAACACAGCGUGGCAAAGUGGCUGUGGCUAGACUGCC

Variants of B1 are the subject of this series. The series is described as follows: self-cleavage, relative activity (ratio to wild type); higher = more cleavage; in vitro, sequencing; the parent is a self-cleaving ribozyme.
Turning to G7C C31U G44C, the self-cleavage turned out to be 0.3. As for G7U A16U G30C C42U C46G, the figure is 0.12.

G7U A11U G22C C23U: the self-cleavage was determined as 0.03. To C8A A25U G40A belongs 0.02. On to G7U A24C G40U, for which the self-cleavage turned out to be 0.15.

In the case of G7U C18A U43G G44C, the self-cleavage is 0.03. To G7U C15G G17C C23U G27U G29U G36C C37U belongs 0.06; to G7U A14C G35C, 0.06.

As for G7U A12G G35U G36C C42U C46U, the self-cleavage worked out at 0.14. As for G7C U28C G36U, the figure is 0.01; as for G7U C13G A24C U38G, 0.02.

As to G7U C13G G17U, the self-cleavage was 0.09. To G7C C13U U28G C37G C42U belongs 0.06. As for G7C G21U U32C C46A, the figure is 0.07; as for G7U C8A C10G A16G G19U C42G, 0.01; as for G7C C15G C18U, 0.03.

Consider G7C U9A C46A, for which the self-cleavage came out at 0.46.

In the case of G7C U28C U34A A39U C42U, the self-cleavage amounted to 0.04. To G7U A25C U34C belongs 0.04; to G7C C10U A25G G27C G36U C42U, 0; to G7U C42A C46U, 0.02. As for G7U G22A G33C, the figure is 0.03; as for G7U C10G C31A G36U, 0.03; as for C8A A25U G36A A41G, 0.97. As for G7C U43C C45U, the figure is 0.07. In the case of G7U U20G A24U G29A, the self-cleavage was determined as 0.04. As for C8A A12G C13U A24U U28A C37G G40C U43G, the figure is 0.1. Regarding G7U U20A G27U G29U G40A C45U, the self-cleavage was found to be 0.11.

Turning to G7C G17C A26C G30U, the self-cleavage worked out at 0.23.

In the case of G7C G29C C37A, the self-cleavage was 0.05.

As for C8A A12U G19C G33U, the self-cleavage was 0.1. To G7U A14U A24G G30A A39G belongs 0.27.

As to C8A A11C C23G U34A G44C, the self-cleavage is 0.02. To C8A A14U C15G A16U U34A A39G C46A belongs 0.06. As for G7U C13G C23U A41C C46U, the figure is 0.17; as for G7U U38A C42A, 0.02.

As for G7U G19A G29A, the self-cleavage stood at 0.05.

Turning to G7C C10U A11G A14U, the self-cleavage came to 0.01. For G7U A12G G33A, the self-cleavage came to 0.06. Take C8A A11U C13G A14U G40C: the self-cleavage was determined as 0.02. As for G7C G33A U34G G44A, the figure is 0.01; as for G7C G22A A24U, 0.04. To G7U A11U C23U belongs 0.02; to C8A A16G A26G G27A G36C G40C, 0.05; to C8A A14U A41U, 0.07. Regarding G7U G19C G40U, the self-cleavage is 0.18. To G7C C13U A41U belongs 0.52; to G7U A26C G27A, 0.02; to C8A A16C U32A U38C C42A, 0.01. As for G7U C15U A24G, the figure is 0.19; as for G7C C18A G44U, 0.05. To G7C C10A C15A C31G C42G U43C G44U belongs 0.01. As for G7U U9C C15U G29U, the self-cleavage was determined as 0.06.

Turning to C8A A12G C23G C42G, the self-cleavage is 0. As for G7U U38A A41G, the figure is 0.03. As for G7C C18A G22A, the figure is 0.31; as for G7C C23G U38A, 0.01; as for C8A A12U G22A C23G A26C, 0.17.

Regarding G7U G33A U38C, the self-cleavage was determined as 0.09. As for G7C C8G U43G, the figure is 0.02. As for G7C U28A A39C G44A, the figure is 0.23; as for G7U U28C C37G A39G, 0.01; as for G7C C10G A11G C15A G27U, 0. To G7C C15G G19A A25C G27A belongs 0.06. As for G7U C18G U20C G22C, the self-cleavage turned out to be 0.05.

For C8A A12C A14C, the self-cleavage was 0.02. Take G7C G29C U38A G40C: the self-cleavage amounted to 0.06.

On to G7C U28A A41U, for which the self-cleavage stood at 0.17.

Regarding G7C C23G C31G, the self-cleavage amounted to 0.01.

For the variant C8A A11U G22C A24U, the self-cleavage is 0.01.

As to G7U A12U U32A C37U, the self-cleavage came to 0.02. For G7C C23U G27U, the self-cleavage came out at 0.06.

On to G7U C8U G40C, for which the self-cleavage worked out at 0.36. To G7U C13A G27U A39U belongs 0.07; to G7C C10U C13A G17U G30U, 0.02; to C8A A12U C13G G35A C37A G40U C45A, 0.08. As for G7U G36U U43G G44U, the figure is 0.02; as for G7U C13U C31A, 0.3; as for G7U A24G G29U U32C, 0.07. To G7U A16C C23A U43G belongs 0.03; to G7C G17U U34A C46A, 0.04; to G7C U20C C45U, 0.06. For the variant G7U G21A A24U G36C, the self-cleavage came out at 0.12. As for G7U G21U C31G U38C, the figure is 0.15; as for C8A A26G A41G, 0.14. To C8A A16C G27C belongs 0.1. To G7U C13U A24C belongs 0.39; to G7U G21U C42G, 0.03; to G7C C10G G30U G44A, 0. With G7U G17C G36U U38G C46A, the self-cleavage was found to be 0.01. To G7U C31G C45A belongs 0.01; to G7U G22U U38G, 0.01; to G7C C15U C37U G40A C46U, 0.06.

On to G7C G19A U34C C46U, for which the self-cleavage came to 0.05.

In the case of G7C C37U A39G C46U, the self-cleavage came to 0.01. Consider G7U C8U A16U, for which the self-cleavage was found to be 0.41.

Turning to G7C U32C C37A, the self-cleavage came to 0.02. To G7C G29A G40A belongs 0.54; to G7C U20C G21A, 0.05; to G7U C8U C13U A14G U38G U43C, 0.14.

As to G7C C15A G21A, the self-cleavage came to 0.17. As for G7C C10A U20C, the figure is 0.03; as for G7C U9A G19U U32C C46A, 0.03. As for G7U C10A G27C G44C, the figure is 0.01. On to G7U U9G G27U U32C C42A, for which the self-cleavage amounted to 0.02. To G7U G22A G44U belongs 0.24; to G7C G17C C18G A25C U34G, 0; to G7C G22U G40U, 0.6. As for G7U A16G A25U G30U, the figure is 0.2; as for G7U A24U G27C G40A, 0.12; as for G7U C15G G40A, 0.1. To C8A A11U A25U U28A belongs 0.02.

For the variant G7C C8U G22A U28C, the self-cleavage was found to be 0.02. To C8A A14C U32C G33A C42U C46A belongs 0.14. To G7C G30A G44U belongs 0.25; to C8A A24U G30U G36C A41G C46A, 0.07. To G7U A25G U34G belongs 0.04; to C8A A14U G29A A39U, 0.19. As for G7U C18U G27C U28C C31G U34A, the self-cleavage is 0.01. On to G7C G21U A25G, for which the self-cleavage amounted to 0.04. Take G7U U20A U34C: the self-cleavage stood at 0.15. As to G7U A16G G22U G33A G44A, the self-cleavage came out at 0.03. To G7U A12G C18U G21A U38A belongs 0.02; to G7C C8U C10A C18G G44A, 0.05. G7U C8U A12U C31A: the self-cleavage turned out to be 0.1.

For G7C U28C C46A, the self-cleavage turned out to be 0.06. As for G7C C8U C31U G44C, the figure is 0; as for G7C G33A G40C C45U, 0; as for G7U U9G G21C C45G, 0.13. As for G7C G17A G21A, the figure is 0.07; as for G7U C18G G36A C42U, 0.91. As for G7U G22U A26C G27U G30U C42U C45U, the figure is 0.05; as for G7U G17U G19C G22C G33C G35C G36A G44C, 0.04; as for C8A A11C U20A G21C G35C, 0.01.

Consider G7U C8A A12G C13A, for which the self-cleavage was found to be 0.6.

For C8A A12U G30A G33C, the self-cleavage was 0.01.

As to G7C C15G A26C G30C U32C, the self-cleavage turned out to be 0.03.

With G7U A11C U38G, the self-cleavage was 0.

Consider G7C C31A C42A, for which the self-cleavage was 0.06. To G7C G30A C31U belongs 0.01; to G7C C15A G19C G27U U38C, 0.59. On to C8A A14G G40A, for which the self-cleavage amounted to 0.11.

For G7U G19A C23A, the self-cleavage was determined as 0.05. To G7U G19U G30A G35A belongs 0.11; to G7U G30U G33A U34A, 0.43. To G7U A16G A41U belongs 0.04; to G7U A14G C23G C31A U34A U38C U43C, 0. To G7C C13A A14G G19A U20G G33A belongs 0.03; to C8A A14U C45A, 0. In the case of G7U C13A G21A G27A C37G, the self-cleavage turned out to be 0.01. To G7U C8A A24G G29A G35C belongs 0.4; to G7U C13A A26U G35A C45U, 0.57; to G7C C18A G21U G44C, 0.01. As for G7U A14U G40U, the figure is 0.04. As for G7C G17U C31U, the figure is 0.17. G7C U28C G35C: the self-cleavage is 0.09. To G7U C8U U9C G22A belongs 0.1.

For G7U G17U G44A, the self-cleavage worked out at 0.1. As for G7U C8A A11G C15U C23A, the figure is 0. As for G7C G29U U32C, the self-cleavage is 0.04. To G7C G33A C45A belongs 0.15. As to G7U U34G A41C, the self-cleavage is 0.08.

As for G7U G19U A26G G29U C31A G36A, the self-cleavage worked out at 0.26. Regarding G7U C8U G17U C23U, the self-cleavage came to 0.33. As for G7U C13U A26C U38C, the figure is 0.03; as for C8A A16G U38A, 0.13; as for C8A A26G G33U G36A G40A, 0.05.
